± gives the standard deviation. This is a selection; strong and weak results do not stand in their true shares.
Test system: MIWI (PIWIL1) piRISC loaded with piRNA #1 (30 nt)
Assay: pre-steady-state target cleavage rate (min^-1); MIWI and MILI are mouse PIWI proteins and EfPiwi is from a freshwater sponge; tags in brackets are library labels; higher = faster piRNA-guided slicing of the target
Settings: guide: piRNA #1 5'p-UGAGGUAGUAGGUUGUAUAGUAUCCAGAGG; auxiliary factor: 500 nM mouse GTSF1
In short: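 A transcribed, DNA-blocked target RNA library […] was incubated at 33 °C for 0–8 or 0–960 min with 1 nM active affinity-purified piRISC carrying one synthetic guide, in HEPES–potassium acetate buffer with or without 500 nM GTSF1 partner protein. Uncleaved targets were then sequenced and normalised to depth and to weakly complementary targets. Data from three trials were pooled, with k3 capped at 0.0001 min^-1, and a burst-and-steady-state fit yielded the pre-steady-state cleavage rate.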
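Further: 1 nM active piRISC with 0.1 nM target library at 33 °C single turnover.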

With GCUCUGGAUACUAUUCAACCAACUACCUCA as the sequence, how does the “pre-steady-state target cleavage rate” value read?
The value was 0.117 ± 0.012.

GCUGUGGAUACUAUACAACCUACUACCUCA was tested. Which “pre-steady-state target cleavage rate” value did it give?
Its value is 1.9 ± 0.11.

For CCUCUGGAUACUAUAGAAGCUACUACCUCA, which “pre-steady-state target cleavage rate” value is on record?
The value was 0.584 ± 0.039.

GCUCUGGUUACUAUACAACCUACAACCUCA was tested. Which “pre-steady-state target cleavage rate” value did it give?
The value was 1.33 ± 0.079.

How did the “pre-steady-state target cleavage rate” value turn out when GGAGACCUAUCUAUACAACCUUCUUCCUCA was run?
The value was 0.0147 ± 0.0041.

For GGAGACGAUACUAUACAAGGUACUACCUCA, which “pre-steady-state target cleavage rate” value is on record?
The value was 0.341 ± 0.024.

GGUGUGGAUAGUAUACAACCUACUACCUCA was tested. Which “pre-steady-state target cleavage rate” value did it give?
The value was 0.328 ± 0.033.

For GGAGACCUAACUGAUACAACCUACUACCUCA, which “pre-steady-state target cleavage rate” value is on record?
Its value is 0.262 ± 0.076.

GGAGACGAUACUAUACAACCUACUACCCCA was tested. Which “pre-steady-state target cleavage rate” value did it give?
Its value is 0.769 ± 0.083.

For GGAGUGGAUACUAAACAUCCUACUACCUCA, which “pre-steady-state target cleavage rate” value is on record?
Its value is 0.961 ± 0.057.

For GGAGACCAUACUAUACAACCUUCAACCUCA, which “pre-steady-state target cleavage rate” value is on record?
Its value is 0.171 ± 0.017.

For GGAGACGAUACUAAAGAACCUACUACCUCA, which “pre-steady-state target cleavage rate” value is on record?
The value was 1.01 ± 0.066.

How did the “pre-steady-state target cleavage rate” value turn out when GCUCUGGAUACUAUACAACCUAGUUCCUCA was run?
Its value is 0.327 ± 0.062.

How did the “pre-steady-state target cleavage rate” value turn out when GGAGACCUAACUUUACAACCUACUAGCUCA was run?
Its value is 0.058 ± 0.022.

With GGACAGGAUACUAUACAACCUACUACCUCA as the sequence, how does the “pre-steady-state target cleavage rate” value read?
The value was 1.73 ± 0.094.

GCUCUGGUUACUAUACAACCAACUACCUCA was tested. Which “pre-steady-state target cleavage rate” value did it give?
Its value is 0.132 ± 0.011.

Which “pre-steady-state target cleavage rate” value does the source give for CCACUGGAUACUAAACAACCUACUACCUCA here?
Its value is 1.86 ± 0.11.

For “GGAGUGGAUACUAUACAACCUACUACCUCC [g2:g26:cont:t1C]”, which “pre-steady-state target cleavage rate” value is on record?
The value was 1.21 ± 0.065.

For GGAGACCUAUGUAUACAACCUAAUACCUCA, which “pre-steady-state target cleavage rate” value is on record?
Its value is 0.00608 ± 0.0023.

For GGAGACCUUACUUUACAACGUACUACCUCA, which “pre-steady-state target cleavage rate” value is on record?
Its value is 0.237 ± 0.035.

GGAGACCUUACUAUACAACCUUCUACCUGA was tested. Which “pre-steady-state target cleavage rate” value did it give?
The value was 0.243 ± 0.033.

GGAGACCUAUGAUAACAACCUACUAGCACA was tested. Which “pre-steady-state target cleavage rate” value did it give?
Its value is less than 0.0001.

How did the “pre-steady-state target cleavage rate” value turn out when CCUCUGGAUACUAUACAACCUAGUACCACA was run?
The value was 0.0224 ± 0.01.

With GGACUGGAUACUAUACAACCUACUACCUUCA as the sequence, how does the “pre-steady-state target cleavage rate” value read?
The value was 0.946 ± 0.089.

Which “pre-steady-state target cleavage rate” value does the source give for GGUCUGGAUACUAUACAACCUACUACUUCA here?
Its value is 1.32 ± 0.095.

How did the “pre-steady-state target cleavage rate” value turn out when GCUCUGGAUACUAUACAACCUACUACACUCA was run?
Its value is 0.988 ± 0.095.

Which “pre-steady-state target cleavage rate” value does the source give for GGAGAGGCUACUAUACAACCUACUACCUCA here?
The value was 1.47 ± 0.069.

For GGAGACCUAUGUAUACAACCUACUACCGCA, which “pre-steady-state target cleavage rate” value is on record?
The value was 0.142 ± 0.022.

How did the “pre-steady-state target cleavage rate” value turn out when GGACUGGAUACUAUUCAACCUACAACCUCA was run?
Its value is 0.194 ± 0.029.

GGAGAGGAUUCUAUACUACCUACUACCUCA was tested. Which “pre-steady-state target cleavage rate” value did it give?
Its value is 1.13 ± 0.09.

GGAGACGAUACUAUACAACCUACUACCAGA was tested. Which “pre-steady-state target cleavage rate” value did it give?
The value was 0.562 ± 0.053.

GGAGACCAUACUAUACAUGGUACUACCUCA was tested. Which “pre-steady-state target cleavage rate” value did it give?
The value was 0.00737 ± 0.0025.

How did the “pre-steady-state target cleavage rate” value turn out when GCUCUGGAAACUAUACAACCUAGUACCUCA was run?
Its value is 0.688 ± 0.13.

GGACUGGAUACUAUACAACCUACUUACCUCA was tested. Which “pre-steady-state target cleavage rate” value did it give?
Its value is 1.04 ± 0.079.

Which “pre-steady-state target cleavage rate” value does the source give for GGAGACCUUACUAUACUACCUACUACCUGA here?
The value was 0.247 ± 0.031.

Which “pre-steady-state target cleavage rate” value does the source give for “GGAGACCUAACUAUACAACCUACAUGGAGA [g8:g21:cont:t1A]” here?
Its value is 0.00535 ± 0.0032.

GGUCUGGAAACUUUACAACCUACUACCUCA was tested. Which “pre-steady-state target cleavage rate” value did it give?
The value was 1.43 ± 0.11.

For GGACUGGAUACUAUUGAACCUACUACCUCA, which “pre-steady-state target cleavage rate” value is on record?
Its value is 0.347 ± 0.04.

How did the “pre-steady-state target cleavage rate” value turn out when GGAGACGAUACUAUAGAAGCUACUACCUCA was run?
The value was 0.593 ± 0.033.

GGAGACGAUUCUAUACAACCUUCUACCUCA was tested. Which “pre-steady-state target cleavage rate” value did it give?
Its value is 0.764 ± 0.04.

Source: the supplement of paper PMC10338343
